# Experimental data from PubChem BioAssay AID1468 (National Center for Advancing Translational Sciences (NCATS), 2008).
# Several values for one entry are separate records, joined by “and”; a condition that tells them apart may be missing. Identical values can stand only once. Screen size: about 280,000 compounds; about 1,100 (0.39%) were called active. Inconclusive results, whose numbers are uncertain, are shown with a selection of clear calls. The call rests on the fitted dose curve; in most records, active means well fitted inhibition curve with a large enough effect; inconclusive means small, poorly fitted or top-dose-only effect, or effect the other way; inactive means flat fitted curve, though single readings scatter. Potencies of inconclusive entries are left out as doubtful fits.
# Molecular target: Microtubule-associated protein tau (Homo sapiens) (UniProt P10636)
# Chain of UniProt P10636 (P10636 whole entry, looked up): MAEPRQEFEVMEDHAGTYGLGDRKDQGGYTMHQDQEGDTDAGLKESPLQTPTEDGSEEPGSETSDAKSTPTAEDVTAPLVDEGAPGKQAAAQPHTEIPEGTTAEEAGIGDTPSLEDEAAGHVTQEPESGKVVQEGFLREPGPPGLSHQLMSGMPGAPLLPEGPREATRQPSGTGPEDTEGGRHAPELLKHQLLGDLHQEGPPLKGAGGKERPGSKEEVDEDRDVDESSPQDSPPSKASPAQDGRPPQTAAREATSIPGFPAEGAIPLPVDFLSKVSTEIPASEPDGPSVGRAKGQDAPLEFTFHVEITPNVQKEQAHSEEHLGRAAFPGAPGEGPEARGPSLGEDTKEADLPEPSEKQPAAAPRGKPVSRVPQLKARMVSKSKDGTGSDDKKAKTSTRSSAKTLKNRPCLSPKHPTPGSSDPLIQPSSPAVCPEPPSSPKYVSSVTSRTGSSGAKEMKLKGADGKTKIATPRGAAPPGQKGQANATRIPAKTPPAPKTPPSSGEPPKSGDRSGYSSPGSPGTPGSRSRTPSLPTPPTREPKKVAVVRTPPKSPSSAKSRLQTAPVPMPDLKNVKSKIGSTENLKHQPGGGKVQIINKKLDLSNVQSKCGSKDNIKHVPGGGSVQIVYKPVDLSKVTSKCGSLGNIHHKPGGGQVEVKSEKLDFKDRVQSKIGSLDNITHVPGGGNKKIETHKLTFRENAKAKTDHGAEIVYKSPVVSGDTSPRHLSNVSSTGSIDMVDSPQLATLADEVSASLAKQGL
# Experiment: qHTS for Inhibitors of Tau Fibril Formation, Fluorescence Polarization; further: nearly all actives have a fitted effect of over 55% in size
# Conditions: K18 P301L tau heparin fibrillization, Alexa594 FP, 6 h; series mostly up to 57.7 µM
# Method in brief: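 Human K18 P301L fragment (15 uM unlabeled plus 0.24 uM Alexa 594-labeled) in 100 mM sodium acetate pH 7 with compound, aggregation induced by 20 uM heparin for 6 hr at 37 C. ThT (30 uM) added for 1 hr, then Alexa 594 FP read.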
# On the % scale 0 is the no-effect control and ±100 the full control effect; potency means the concentration at half of the fitted maximal effect; tags describe the fitted curve by direction and shape.
SMILES,Potency,"activity, negative = inhibition"
CCOC(=O)c1nnn(-c2nonc2N)c1CSc1ccccc1,inactive,–
CN1CCc2c(sc3c2C(=O)NC(c2cn(Cc4ccccc4)c4ccccc24)N3)C1 (stereo not given),"inconclusive [inhibitor, single point]",–
COc1ccc(NCC(=O)n2c(C)c(C)c3ccccc32)cc1,inactive,–
COc1ccc(S(=O)(=O)N2CCC(C(=O)NCc3ccccn3)CC2)cc1C,inactive,–
Cn1ncc2c(O/N=C(\N)c3ccc(C(F)(F)F)cc3)ncnc21,"inconclusive [inhibitor, single point]",–
O=C(CSc1nc(=O)n(CCN2CCOCC2)c2c1CCC2)Nc1ccccc1,inactive,–
COc1ccccc1CNC(=O)CCCn1c(=O)c2ccccc2n(CC(=O)Nc2c(C)cc(C)cc2C)c1=O,"inconclusive [inhibitor, partial curve]",–
CCOC(=O)c1sc(NC(=O)C2c3ccccc3Oc3ccccc32)c(C(=O)OCC)c1C,"inconclusive [inhibitor, partial curve]",–
COc1ccc(NC(=O)CSc2nnc(NC(=O)Nc3ccccc3)s2)cc1OC,"inconclusive [inhibitor, single point]",–
COc1ccc(CN2CCN(C(=O)C3CC(=O)N(C4CCCCCC4)C3)CC2)c(OC)c1OC (stereo not given),inactive,–
O=C(O)c1ccc(N/N=C2/CCCc3ccccc32)cc1,inactive,–
O=[N+]([O-])c1cccc(/C=N/Nc2nc(C(Cl)(Cl)Cl)nc3ccccc23)c1,"inconclusive [inhibitor, partial curve]",–
COc1ccc(Nc2nc(N)c3cc(OC)c(OC)cc3n2)cc1,"inconclusive [activator, partial curve]",–
O=C(NNc1ccccn1)C(=O)NNS(=O)(=O)c1ccc(Cl)cc1,"inconclusive [inhibitor, single point]",–
CC(C)=CCC/C(C)=C/CO/N=C1/C[C@@H](O)[C@@H](O)[C@@H]2[C@@H]3C(=O)N(c4cccc(Oc5ccccc5)c4)C(=O)[C@H]3CC[C@@H]12,–,inactive: -4.49% [at 11.6 µM]
CCN1C(=O)[C@@H]2[C@H]3C(=CC[C@H]2C1=O)C(=O)[C@H]1OC1[C@H]3O (stereo not given in full),"inconclusive [inhibitor, partial curve]",–
O=C1CC(c2c(F)cccc2Cl)c2c(ccc3ccccc23)N1 (stereo not given),"inconclusive [inhibitor, single point]",–
COC(=O)c1cccnc1-n1c(=O)c2cccnc2n(CC(=O)Nc2cccc(C)c2)c1=O,"inconclusive [inhibitor, single point]",–
O=C(Nc1cccnc1)c1ccc(Cl)c(S(=O)(=O)N2CCc3ccccc32)c1,"inconclusive [inhibitor, partial curve]",–
CCN(c1ccccc1C)S(=O)(=O)c1nnc(NC(=O)c2ccccc2C)s1,"inconclusive [inhibitor, full curve, poor fit]",–
Nc1cc(-c2ccncc2)c[nH]c1=O,active: 4.47 µM and active: 2 µM,–
CC1(C)CC(=O)C=C(Nc2ccc(F)cc2)C1,inactive,–
Cc1ccc(C2C(C#N)=C(N)OC3=C2C(=O)CCC3)s1 (stereo not given),inactive,–
CCN(CC)S(=O)(=O)c1ccc(N2CCOCC2)c(NC(=O)c2ccccc2)c1,inactive,–

SMILES,Potency,"activity, negative = inhibition"
COC(=O)c1cc(NC(=O)CN(c2ccc(OC)cc2)S(=O)(=O)c2ccc(F)cc2)ccc1Cl,"inconclusive [inhibitor, partial curve]",–
Cc1cccc2c1-c1sc(C(=O)NCCCN3CCN(c4ccccc4F)CC3)cc1CO2,inactive,–
O=C(COC(=O)c1cc(=O)[nH]c(=O)[nH]1)Nc1cccc(S(=O)(=O)N2CCOCC2)c1,inactive,–
Cc1cn(C)c(CC(=O)Nc2cccc(C#N)c2)c1C(=O)O,inactive,–
Cc1ccccc1NC(=O)COc1ccc2oc3c(c2c1)CCCC3,"inconclusive [inhibitor, single point]",–
Cc1cc(Cl)ccc1OC(C)C(=O)Nc1ccccc1N1CCOCC1 (stereo not given),inactive,–
COc1ccccc1NC(=O)Cc1csc(NC(=S)Nc2ccccc2)n1,"inconclusive [inhibitor, partial curve]",–
COc1ccc(-c2cc3nc(-c4ccccc4)cc(N4CCC(O)CC4)n3n2)cc1,"inconclusive [inhibitor, partial curve, poor fit]",–
Cc1ccccc1OCCn1cc(C(=O)c2ccco2)c2ccccc21,"inconclusive [inhibitor, partial curve]",–
CCOC(=O)N1CCN(C(=O)C2CCN(S(=O)(=O)CC)CC2)CC1,"inconclusive [inhibitor, single point]",–
O=C(N/N=C/c1ccccc1C(F)(F)F)c1ccc(O)cc1,inactive,–
Cc1ccc(OCC(=O)NC(C)c2ccccc2)c([N+](=O)[O-])n1 (stereo not given),"inconclusive [inhibitor, single point]",–
COc1ccc(OC)c(C(=O)CSc2nccc(-c3ccc(Br)cc3)n2)c1,"inconclusive [inhibitor, partial curve]",–
CC12CN(C(=O)c3ccco3)CC(c3ccccc3)(CN(C(=O)c3ccco3)C1)C2=O,"inconclusive [inhibitor, full curve, poor fit]",–
Nc1nonc1-n1nnc(C(=O)N/N=C/c2ccccc2Cl)c1COc1ccc(F)cc1,"inconclusive [inhibitor, single point]",–
N#Cc1cccc(CS(=O)(=O)c2nc3ccccc3s2)c1,"inconclusive [inhibitor, partial curve, poor fit]",–
CS(=O)(=O)N(CC(=O)NCCSCc1c(F)cccc1Cl)c1ccc2c(c1)OCO2,inactive,–
COc1cc(CNn2cn[nH]c2=S)cc(Br)c1OCc1ccccc1F,inactive,–
CCc1cccc(NC(=O)Cn2c(=O)n3nc(-c4cccc(F)c4)nc3c3ccccc32)c1,inactive,–
COc1cccc(Cn2nnc(C(=O)NCc3ccc(Cl)cc3Cl)c2N)c1,"inconclusive [inhibitor, partial curve]",–
COc1ccc(C(=O)c2oc3ccccc3c2NC(=O)c2cccc(OC)c2)cc1,"inconclusive [inhibitor, partial curve]",–
O=C(/C(=C\c1ccccc1)c1nc2ccccc2[nH]1)c1ccc(Cl)cc1,"inconclusive [inhibitor, partial curve]",–
C/C=C/Cn1c(SCc2ccccc2)nc2c1c(=O)[nH]c(=O)n2C,inactive,–
COc1ccc(C2=NO[C@@H]3C(=O)N(c4cccc(C)c4C)C(=O)[C@H]23)cc1OC,inactive,–

SMILES,Potency,"activity, negative = inhibition"
COC(=O)C(N)CS (stereo not given),"inconclusive [inhibitor, partial curve]",–
CCN(CC)CCOC(=O)c1ccc(NC(=O)c2cc3c(s2)-c2ccccc2OC3)cc1,"inconclusive [inhibitor, full curve]",–
Cc1nc(-c2ccc(S(=O)(=O)Nc3ccc(Cl)c(C(F)(F)F)c3)cc2)co1,"inconclusive [inhibitor, partial curve]",–
COc1ccc(Nc2ccc(OC)cc2)cc1,"inconclusive [inhibitor, partial curve]",–
N#CCCn1nc(-c2ccccc2)cc1Nc1ccccc1NC(=O)C(F)(F)F,inactive,–
CCOCCn1cnc2sc(C(=O)Nc3ccccc3C(=O)OC)c(C)c2c1=O,inactive,–
Cn1c(=O)c2c(c3ccccc31)OC(=O)CC2c1cccc(Cl)c1 (stereo not given),"inconclusive [inhibitor, single point]",–
COc1ccccc1/C=C/c1nc(C#N)c(NCC(C)C)o1,"inconclusive [activator, partial curve, poor fit]",–
Cc1no[n+]([O-])c1COc1cccc(/C=N/Nc2nncn2N)c1,"inconclusive [inhibitor, partial curve]",–
CC1CCCCN1S(=O)(=O)c1ccc(NC(=O)c2cccs2)cc1 (stereo not given),"inconclusive [inhibitor, partial curve]",–
O=C(Nc1ccc(Cl)c(Cl)c1)Nc1cc(S(=O)(=O)N2CCOCC2)ccc1N1CCCC1,"inconclusive [inhibitor, single point]",–
CC(C)Cn1c(=O)c2ccccc2n2c(CCC(=O)Nc3ccc(F)cc3)nnc12,inactive,–
O=C(Nc1ccc2ncccc2c1)Nc1ccc2ncccc2c1,"inconclusive [inhibitor, partial curve]",–
COc1cc2[nH]c3c(N4CCN(c5ccccn5)CC4)ncnc3c2cc1OC,"inconclusive [activator, partial curve]",–
CC(=O)Nc1nnc2n1CCS2,inactive,–
CC(N)C12CC3CC(CC(C3)C1)C2 (stereo not given),"inconclusive [inhibitor, single point]",–
CCc1ccc(S(=O)(=O)Nc2cc(SCC(=O)O)c(O)c3ccccc23)cc1,active: 8.91 µM,–
CCOc1ccc(C2C(C(=O)Nc3ccccc3C)=C(C)Nc3nnnn32)cc1 (stereo not given),"inconclusive [inhibitor, single point]",–
Cc1nc2c(Br)c3nc(C(F)(F)F)[nH]c3c(Br)c2[nH]1,"inconclusive [inhibitor, single point]",–
COc1ccc(C)cc1NC(=O)c1oc2ccc(S(=O)(=O)N3CCC4(CC3)OCCO4)cc2c1C,inactive,–
COc1ccccc1Nc1nc(Cl)nc(Nc2ccccc2OC)n1,"inconclusive [inhibitor, single point]",–
CCC(=O)Nc1ccc(-c2cc(-c3ccccc3)nc(-c3ccc(NC(=O)CC)cc3)n2)cc1,active: 11.2 µM,–
